The campaign covered roughly 310,000 compounds. About 14,000 (4.5%) showed an effect of 50% or more. Effects have a minus sign here. The list shows a part of the results.
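Further: peak tail current of the secondary pulse compared with the same well before compound.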

In this experiment the target is human ether-à-go-go-related gene (hERG) potassium channel (human, UniProt Q12809). Description: primary screen, population patch clamp on CHO cells stably expressing hERG.
Chain of human ether-à-go-go-related gene (hERG) potassium channel (Q12809 whole entry, looked up): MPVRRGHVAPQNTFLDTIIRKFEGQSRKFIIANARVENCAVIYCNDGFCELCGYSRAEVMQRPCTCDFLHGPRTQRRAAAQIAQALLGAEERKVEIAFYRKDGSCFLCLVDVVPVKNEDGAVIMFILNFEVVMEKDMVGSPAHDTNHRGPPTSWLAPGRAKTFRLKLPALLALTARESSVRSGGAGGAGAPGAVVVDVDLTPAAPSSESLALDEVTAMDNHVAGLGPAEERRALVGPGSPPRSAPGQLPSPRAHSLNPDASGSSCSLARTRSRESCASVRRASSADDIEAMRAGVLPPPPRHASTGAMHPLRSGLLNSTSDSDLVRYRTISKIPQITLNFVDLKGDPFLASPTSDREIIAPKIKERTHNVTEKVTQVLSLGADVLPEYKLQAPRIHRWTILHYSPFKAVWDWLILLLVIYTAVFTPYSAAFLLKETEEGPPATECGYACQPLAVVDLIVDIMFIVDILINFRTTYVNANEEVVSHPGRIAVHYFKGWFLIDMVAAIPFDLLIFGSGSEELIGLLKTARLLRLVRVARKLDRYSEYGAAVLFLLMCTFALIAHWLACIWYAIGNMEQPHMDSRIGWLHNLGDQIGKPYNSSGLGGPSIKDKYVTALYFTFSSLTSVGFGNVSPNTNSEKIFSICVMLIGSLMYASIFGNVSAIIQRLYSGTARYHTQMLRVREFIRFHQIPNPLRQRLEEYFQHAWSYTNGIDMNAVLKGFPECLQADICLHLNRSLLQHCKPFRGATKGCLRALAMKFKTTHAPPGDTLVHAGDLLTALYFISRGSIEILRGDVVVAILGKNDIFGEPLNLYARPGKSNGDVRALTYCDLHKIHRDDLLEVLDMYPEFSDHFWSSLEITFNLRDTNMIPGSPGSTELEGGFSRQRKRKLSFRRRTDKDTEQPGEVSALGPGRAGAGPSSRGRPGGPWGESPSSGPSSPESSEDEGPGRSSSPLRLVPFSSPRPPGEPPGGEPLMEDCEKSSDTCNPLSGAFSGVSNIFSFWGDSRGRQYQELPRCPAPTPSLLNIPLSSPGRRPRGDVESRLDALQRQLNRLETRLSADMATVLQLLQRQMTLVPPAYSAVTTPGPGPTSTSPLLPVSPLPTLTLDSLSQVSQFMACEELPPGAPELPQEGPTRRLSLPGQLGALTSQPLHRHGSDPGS
`CC(C)c1ccc(C(C)NCCS(=O)(=O)c2ccc(Cl)cc2)cc1` (centres unmarked): the “hERG current change (%, negative = inhibition) at 10uM” value was -25.8%. The figure for `COC(=O)c1ccc(/C=C/c2c(-c3ccc(OC)cc3)oc3ccc(N4CCOCC4)cc23)cc1` is 25.7%. For the molecule `COCCSc1ccccc1C(=O)N1CCc2ccccc21`, the “hERG current change (%, negative = inhibition) at 10uM” value was 15.1%.

For `CCC(C)NC(=O)C1CCC(=O)N(c2ccc3c(c2)OCO3)C1c1ccc(OC)cc1` (centres unmarked), the “hERG current change (%, negative = inhibition) at 10uM” value came out at 11.9%.

For `CC1(C)CC(=O)C(C=NCC(N)=O)=C(O)C1`, the “hERG current change (%, negative = inhibition) at 10uM” value was -19.5%. The figure for `O=C1Nc2c(ccc(Cl)c2Cl)C(=O)C1(F)c1ccccc1` (centres unmarked) is 1.54%; for `O=C(O)c1cc2c(cc1NC(=O)C1CCCC1)OCCO2` it is 12.9%; for `CC(=O)c1ccccc1NC(=O)CCCNC(=O)c1ccc(Cl)cc1` it is -20.1%.

Turning to `COc1ccccc1C(=O)C1CCCN(C(=O)Nc2ccccc2F)C1` (centres unmarked), the “hERG current change (%, negative = inhibition) at 10uM” value stood at 37.3%. The figure for `CCOC(=O)C(=O)N=Nc1c(O)[nH]c2ccccc12` is 2.03%. Consider `N#CC1=C(N)C(C#N)(C#N)[C@H](c2ccsc2)[C@H]2COCC=C12`, for which the “hERG current change (%, negative = inhibition) at 10uM” value is recorded as -10.9%.

As to `O=C(Nc1ccc(Oc2ccc(S(=O)(=O)N3CCOCC3)cn2)cc1)c1ccco1`, the “hERG current change (%, negative = inhibition) at 10uM” value is listed as -1.73%. Then `CC(C)(C)c1cc(C(=O)N/N=C/c2ccc([N+](=O)[O-])s2)n[nH]1`, with 9.21%. Turning to `Clc1ccc(CNc2ccc(CNc3ncn[nH]3)cc2)c(Cl)c1`, the “hERG current change (%, negative = inhibition) at 10uM” value turned out to be 5.43%. The figure for `CCc1ccc(NC(=O)CSc2ccccn2)cc1` is -9.68%; for `COc1ccc(-c2nc(N=Nc3ccc(O)cc3)n[nH]2)cc1` it is -4.36%; for `COc1ccc2oc(-c3ccc(C)c(NC(=O)CSc4ccc(Cl)cc4)c3)nc2c1` it is 10.8%.

`CCc1ccc(NC(=O)c2ccccc2NC(=O)C2CCCO2)cc1` (centres unmarked): the “hERG current change (%, negative = inhibition) at 10uM” value is reported as -18.3%.

In the case of `C=CCN(C(=O)CCC(=O)Nc1cc(C)on1)C(C(=O)NC1CCCC1)c1ccc(Cl)cc1` (centres unmarked), the “hERG current change (%, negative = inhibition) at 10uM” value is listed as -56.3%. The figure for `COc1ccc(N2CCN(C3CC(=O)NC3=O)CC2)cc1` (centres unmarked) is 6.47%; for `CSc1cccc(NC(=O)c2cc(S(=O)(=O)N3CCCCC3)c[nH]2)c1` it is 14.7%. Then `COc1cc(NC(=O)C2CCC(CNS(=O)(=O)c3csc(C(N)=O)c3)CC2)cc(OC)c1` (centres unmarked), with 16.5%; and `N#Cc1c(NC(=O)c2ccncc2)sc2c1CCC2`, with 4.22%. Then `COC(=O)c1ccc(C(=O)Nc2nc3cc(N)c(C)cc3s2)cc1`, with 24%; and `Cc1ccc(/C=N/NC(=O)CNC(=O)c2cccs2)o1`, with 39.3%; and `CCOc1cc2c(cc1OCC)CN(C(=O)c1cccc(S(=O)(=O)N3CCCC3)c1)CC2`, with -8.98%. With `COc1ccc(C2Nc3ccccc3C(=O)N2c2ccc(F)cc2)cc1Cn1nnc2ccccc21` (centres unmarked), the “hERG current change (%, negative = inhibition) at 10uM” value is -6.35%. The figure for `CC(C)CN1CCN(Cc2cc(F)ccc2-n2cccn2)CC1CCO` (centres unmarked) is -6.87%; for `Cc1cccn2cc(CCNS(=O)(=O)c3cccc([N+](=O)[O-])c3)nc12` it is -14%; for `COc1cc(C(=O)NCCC(=O)NC2CCCCC2)cc(OC)c1OC` it is 13.8%. Then `CC(C)NC(=O)c1c(CSc2ccc(Cl)cc2)noc1C(=O)NCc1ccccc1`, with 2.92%; and `Cn1c(SCC(=O)NC2CC2)nnc1C1CC1`, with -10.2%. The figure for `COc1ccc(OC)c(C(c2nnnn2C2CCCC2)N2CCN(c3ccc(F)cc3)CC2)c1` (centres unmarked) is -40.7%; for `Cc1ccc2c(c1)C(O)(C1COC(C)(C)CC1=O)C(=O)N2C` (centres unmarked) it is -6.72%; for `COC(=O)COc1ccc(/C=N/NC(=O)CN(c2ccccc2OC)S(=O)(=O)c2ccccc2)cc1` it is -32.7%.

In the case of `O=c1[nH]c(/C=C/c2ccc(OC(F)F)cc2)nc2c1cnn2-c1ccccc1`, the “hERG current change (%, negative = inhibition) at 10uM” value was determined as 23.4%.

Take `S=C(Nc1ccc(OCc2ccccc2)cc1)Nc1cccc(Cl)c1Cl`: the “hERG current change (%, negative = inhibition) at 10uM” value was 1.73%. The figure for `O=C(CSc1ccc(Br)cc1)N1CCN(C(=O)c2ccco2)CC1` is -62.4%.

With `Cc1ccc2[nH]c(C)c(CCNCc3cccnc3)c2c1.Cl`, the “hERG current change (%, negative = inhibition) at 10uM” value is reported as 0.252%. With `Cc1ccc(N(Cc2ccccc2)C(=O)c2cccc(S(=O)(=O)N3CCOCC3)c2)cc1`, the “hERG current change (%, negative = inhibition) at 10uM” value is -74.5%. Take `COc1cc2c(cc1NC(=O)c1cncc(Br)c1)oc1ccccc12`: the “hERG current change (%, negative = inhibition) at 10uM” value is 19%. Then `O=C(OCC(=O)N1CCCCC1)c1c[nH]c2ccccc12`, with -7.04%; and `O=C1CCN(C(=O)CNC(=O)Cc2ccccc2)CC1`, with 16.8%; and `CCCCc1sc(-c2c(C#N)c(N)nc3c2CCCCC3)cc1[N+](=O)[O-]`, with -18.8%. Then `CC1=NC(C(F)(F)F)(C(F)(F)F)C(C#N)=C(C)N1`, with 5.98%. Then `O=C(Nc1ccccc1)Nc1cccc(C(F)(F)F)c1`, with 17.4%. Take `Clc1ccc(-c2nc3ccc(Cl)cn3c2CN2CCCCC2)cc1`: the “hERG current change (%, negative = inhibition) at 10uM” value is 5.11%. Then `CC(C)(C)C(=O)Nc1cc(NC(=O)C(C)(C)C)cc(C(=O)Nc2c[nH]c(=O)[nH]c2=O)c1`, with -1.81%. Then `CSc1cccc(NC(=O)COc2cccc3ccccc23)c1`, with 13.5%; and `COc1cc(C=C2C(=O)NC(=O)NC2=O)cc(OC)c1OC`, with 22.1%; and `N=c1oc2ccc(Br)cc2cc1C(=O)NC1CCCCCC1`, with -12.6%. For `CC(C)CNC(=O)COc1ncnc2ccccc12`, the “hERG current change (%, negative = inhibition) at 10uM” value was found to be 19.2%. The figure for `O=C(/C=C/c1cccc([N+](=O)[O-])c1)N1CC[C@@]2(O)CCCC[C@H]2C1` is -18.4%; for `CCOC(=O)NNC(=O)NCCCCCCNC(=O)NNC(=O)OCC` it is 10.9%.

Take `COc1ccc(NS(=O)(=O)c2cccc(C(=O)N3CCN(Cc4ccc5c(c4)OCO5)CC3)c2)cc1`: the “hERG current change (%, negative = inhibition) at 10uM” value was -76.8%. Then `CCn1cc(C(=O)N2CCc3ccccc32)c(=O)c2cc(S(=O)(=O)N(C)C3CCCCC3)ccc21`, with -47.7%.

The values are drawn from PMC4336329 (PLoS ONE, 2015).
